This is one part of the list.
Biological target: T1, MBP-FoxP1dN (Mus musculus, UniProt P58462 326-579)
T1 sequence: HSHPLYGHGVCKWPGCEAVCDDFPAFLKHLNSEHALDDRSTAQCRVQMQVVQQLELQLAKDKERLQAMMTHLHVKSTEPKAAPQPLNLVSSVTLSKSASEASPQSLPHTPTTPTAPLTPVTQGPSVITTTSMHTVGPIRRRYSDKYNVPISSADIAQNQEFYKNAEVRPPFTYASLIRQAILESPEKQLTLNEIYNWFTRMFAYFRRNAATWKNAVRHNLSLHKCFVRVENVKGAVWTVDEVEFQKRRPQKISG
Assay: PD-seq (MBP pull-down with sequencing); 20 mM Tris-HCl pH 7.5, 100 mM NaCl, 1.5 mM MgCl2, 0.4 uM protein, 0.1 uM dsDNA library, 30 min, room temperature, amylose pull-down; high values mean tight binding
Conditions: protein: recombinant; tags: His6-MBP; chain copies: 2; dsDNA, one strand shown
Outline: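 In Tris pH 7.5 buffer with NaCl and MgCl2, 0.4 µM His6-MBP-tagged mouse FoxP3 or FoxP1 fragment lacking the N-terminus, from E. coli, met 0.1 µM Klenow-filled double-stranded degenerate DNA library for 30 min at room temperature. Three washes on amylose resin followed capture of the complexes, then proteinase K release of DNA, PCR barcoding and Illumina sequencing. Binding is taken as pooled-replicate reads-per-million enrichment of pull-down relative to input.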

Row | Sequence | binding signal
1 | GATGATTGTTCTCCCAGCTGATGAATTGCTCCAATCGAGTAAACAAATTTTCCTAATCTTTCTGTTCAAGCGCCATCTAC | 1.09 RPM ratio (pull-down/input)
2 | GATGATTGTTCTCCCAGCTGATGAATTGGTAGTTTCGAGTAAACAAATTTTCCTAATCTTTCTGTTCAAGCGCCATCTAC | 1.03 RPM ratio (pull-down/input)
3 | GATGATTGTTCTCCCAGCTGATGAATTATATGGATCGAGTAAACAAATTTTCCTAATCTTTCTGTTCAAGCGCCATCTAC | 0.917 RPM ratio (pull-down/input)
4 | GATGATTGTTCTCCCAGCTGATGAATTGTGAACATCGAGTAAACAAATTTTCCTAATCTTTCTGTTCAAGCGCCATCTAC | 1.33 RPM ratio (pull-down/input)
5 | GATGATTGTTCTCCCAGCTGATGAATTGTTTATATCGAGTAAACAAATTTTCCTAATCTTTCTGTTCAAGCGCCATCTAC | 2.47 RPM ratio (pull-down/input)
6 | GATGATTGTTCTCCCAGCTGATGAATTTGGTGTCTCGAGTAAACAAATTTTCCTAATCTTTCTGTTCAAGCGCCATCTAC | 0.916 RPM ratio (pull-down/input)
7 | GATGATTGTTCTCCCAGCTGATGAATTTCGGTGATCGAGTAAACAAATTTTCCTAATCTTTCTGTTCAAGCGCCATCTAC | 0.941 RPM ratio (pull-down/input)
8 | GATGATTGTTCTCCCAGCTGATGAATTAGTCCTGTCGAGTAAACAAATTTTCCTAATCTTTCTGTTCAAGCGCCATCTAC | 0.893 RPM ratio (pull-down/input)
9 | GATGATTGTTCTCCCAGCTGATGAATTACTACTGTCGAGTAAACAAATTTTCCTAATCTTTCTGTTCAAGCGCCATCTAC | 1.23 RPM ratio (pull-down/input)
10 | GATGATTGTTCTCCCAGCTGATGAATTTGCGAATTCGAGTAAACAAATTTTCCTAATCTTTCTGTTCAAGCGCCATCTAC | 1.03 RPM ratio (pull-down/input)
11 | GATGATTGTTCTCCCAGCTGATGAATTTAATTCGTCGAGTAAACAAATTTTCCTAATCTTTCTGTTCAAGCGCCATCTAC | 0.913 RPM ratio (pull-down/input)
12 | GATGATTGTTCTCCCAGCTGATGAATTCTGTATGTCGAGTAAACAAATTTTCCTAATCTTTCTGTTCAAGCGCCATCTAC | 1.23 RPM ratio (pull-down/input)
13 | GATGATTGTTCTCCCAGCTGATGAATTATAGCCTTCGAGTAAACAAATTTTCCTAATCTTTCTGTTCAAGCGCCATCTAC | 0.976 RPM ratio (pull-down/input)
14 | GATGATTGTTCTCCCAGCTGATGAATTGATCAGATCGAGTAAACAAATTTTCCTAATCTTTCTGTTCAAGCGCCATCTAC | 0.997 RPM ratio (pull-down/input)
15 | GATGATTGTTCTCCCAGCTGATGAATTTCAATTGTCGAGTAAACAAATTTTCCTAATCTTTCTGTTCAAGCGCCATCTAC | 1.02 RPM ratio (pull-down/input)
16 | GATGATTGTTCTCCCAGCTGATGAATTGCACAAATCGAGTAAACAAATTTTCCTAATCTTTCTGTTCAAGCGCCATCTAC | 1.47 RPM ratio (pull-down/input)

Row | Sequence | binding signal
17 | GATGATTGTTCTCCCAGCTGATGAATTTGAGACGTCGAGTAAACAAATTTTCCTAATCTTTCTGTTCAAGCGCCATCTAC | 0.779 RPM ratio (pull-down/input)
18 | GATGATTGTTCTCCCAGCTGATGAATTCGAATTGTCGAGTAAACAAATTTTCCTAATCTTTCTGTTCAAGCGCCATCTAC | 1.02 RPM ratio (pull-down/input)
19 | GATGATTGTTCTCCCAGCTGATGAATTTTTATGATCGAGTAAACAAATTTTCCTAATCTTTCTGTTCAAGCGCCATCTAC | 1.08 RPM ratio (pull-down/input)
20 | GATGATTGTTCTCCCAGCTGATGAATTGATAGAATCGAGTAAACAAATTTTCCTAATCTTTCTGTTCAAGCGCCATCTAC | 1.06 RPM ratio (pull-down/input)
21 | GATGATTGTTCTCCCAGCTGATGAATTTATATCATCGAGTAAACAAATTTTCCTAATCTTTCTGTTCAAGCGCCATCTAC | 1.27 RPM ratio (pull-down/input)
22 | GATGATTGTTCTCCCAGCTGATGAATTGCCTGCCTCGAGTAAACAAATTTTCCTAATCTTTCTGTTCAAGCGCCATCTAC | 0.98 RPM ratio (pull-down/input)
23 | GATGATTGTTCTCCCAGCTGATGAATTACGGCCCTCGAGTAAACAAATTTTCCTAATCTTTCTGTTCAAGCGCCATCTAC | 0.874 RPM ratio (pull-down/input)
24 | GATGATTGTTCTCCCAGCTGATGAATTCCTGACCTCGAGTAAACAAATTTTCCTAATCTTTCTGTTCAAGCGCCATCTAC | 0.746 RPM ratio (pull-down/input)
25 | GATGATTGTTCTCCCAGCTGATGAATTCTTCATATCGAGTAAACAAATTTTCCTAATCTTTCTGTTCAAGCGCCATCTAC | 0.961 RPM ratio (pull-down/input)
26 | GATGATTGTTCTCCCAGCTGATGAATTTGGCAGATCGAGTAAACAAATTTTCCTAATCTTTCTGTTCAAGCGCCATCTAC | 0.898 RPM ratio (pull-down/input)
27 | GATGATTGTTCTCCCAGCTGATGAATTTTCTGGTTCGAGTAAACAAATTTTCCTAATCTTTCTGTTCAAGCGCCATCTAC | 0.937 RPM ratio (pull-down/input)
28 | GATGATTGTTCTCCCAGCTGATGAATTGATAAATTCGAGTAAACAAATTTTCCTAATCTTTCTGTTCAAGCGCCATCTAC | 1.24 RPM ratio (pull-down/input)
29 | GATGATTGTTCTCCCAGCTGATGAATTTTCCCAGTCGAGTAAACAAATTTTCCTAATCTTTCTGTTCAAGCGCCATCTAC | 0.905 RPM ratio (pull-down/input)
30 | GATGATTGTTCTCCCAGCTGATGAATTATATTGTTCGAGTAAACAAATTTTCCTAATCTTTCTGTTCAAGCGCCATCTAC | 2.08 RPM ratio (pull-down/input)
31 | GATGATTGTTCTCCCAGCTGATGAATTCGTCTTTTCGAGTAAACAAATTTTCCTAATCTTTCTGTTCAAGCGCCATCTAC | 0.908 RPM ratio (pull-down/input)

Reference: article PMC12820563, “FoxP3 forms a head-to-head dimer in vivo and stabilizes its multimerization on adjacent microsatellites”
